In article PMC10558455:
Substitutions are numbered along the chain they refer to. Names and notes keep the numbering of the source. Results are given in words; binding and its absence hold for the method and conditions named. In cells and extracts the contact can be indirect. Some binding calls cover weakened binding; strength is not graded here. For some assays here: Tags and fused reporters may be left off the sequences shown.

Sequences of proteins named here, by UniProt entry; tags and fusion partners are left off.
UniProt Q8NEZ2: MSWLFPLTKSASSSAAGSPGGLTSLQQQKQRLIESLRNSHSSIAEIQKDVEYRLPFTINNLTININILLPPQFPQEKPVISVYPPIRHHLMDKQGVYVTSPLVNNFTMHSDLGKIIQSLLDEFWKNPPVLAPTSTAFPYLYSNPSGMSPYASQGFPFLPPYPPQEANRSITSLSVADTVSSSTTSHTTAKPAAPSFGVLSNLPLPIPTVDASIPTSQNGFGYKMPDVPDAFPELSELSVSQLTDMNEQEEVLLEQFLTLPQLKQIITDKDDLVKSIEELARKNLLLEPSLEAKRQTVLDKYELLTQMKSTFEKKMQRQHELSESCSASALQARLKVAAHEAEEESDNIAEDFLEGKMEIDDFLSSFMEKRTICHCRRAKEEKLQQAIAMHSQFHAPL
UniProt Q9UK41: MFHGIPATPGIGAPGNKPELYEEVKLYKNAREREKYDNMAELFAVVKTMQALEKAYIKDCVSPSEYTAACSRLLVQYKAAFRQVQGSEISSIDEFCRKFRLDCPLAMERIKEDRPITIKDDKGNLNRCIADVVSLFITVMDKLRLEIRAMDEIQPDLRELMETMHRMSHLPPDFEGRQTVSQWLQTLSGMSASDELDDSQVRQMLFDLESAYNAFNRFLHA

How the values were obtained:
[1] = target: T1, recombinant VPS4A (human) (UniProt Q9UN37); test: pull-down; E. coli BL21 (DE3) proteins; GST-tagged protein held on Glutathione Sepharose 4 Fast Flow and washed, then mixed with the cleared lysate of the MBP-tagged protein for 2 h at 4 °C in 40 mM Tris-HCl pH 7.5, 5 mM EDTA, 0.5% Triton X-100; CBB staining or immunoblot; only the target purified
T1 sequence: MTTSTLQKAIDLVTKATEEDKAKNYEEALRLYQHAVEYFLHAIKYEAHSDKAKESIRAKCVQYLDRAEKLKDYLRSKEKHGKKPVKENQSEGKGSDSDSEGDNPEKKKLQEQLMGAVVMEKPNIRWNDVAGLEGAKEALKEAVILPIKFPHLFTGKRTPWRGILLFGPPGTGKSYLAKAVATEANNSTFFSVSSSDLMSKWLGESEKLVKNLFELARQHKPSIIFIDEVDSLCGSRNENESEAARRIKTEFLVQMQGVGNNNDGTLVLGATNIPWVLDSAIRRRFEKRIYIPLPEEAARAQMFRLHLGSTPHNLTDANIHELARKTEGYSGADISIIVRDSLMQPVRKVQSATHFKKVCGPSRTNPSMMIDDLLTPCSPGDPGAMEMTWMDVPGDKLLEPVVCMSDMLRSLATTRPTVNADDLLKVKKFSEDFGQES

GFP-EAP20 (human) = target: T2, GFP-EAP20 (human) (UniProt Q9BRG1); test: co-IP
T2 sequence: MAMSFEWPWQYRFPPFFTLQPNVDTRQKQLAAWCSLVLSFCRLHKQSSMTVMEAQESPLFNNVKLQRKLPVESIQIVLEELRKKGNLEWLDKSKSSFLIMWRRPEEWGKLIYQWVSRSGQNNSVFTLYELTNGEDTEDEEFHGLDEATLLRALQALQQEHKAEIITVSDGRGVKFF

GFP-VPS37D (human) = target: T3, GFP-VPS37D (human) (UniProt Q86XT2); test: co-IP
T3 sequence: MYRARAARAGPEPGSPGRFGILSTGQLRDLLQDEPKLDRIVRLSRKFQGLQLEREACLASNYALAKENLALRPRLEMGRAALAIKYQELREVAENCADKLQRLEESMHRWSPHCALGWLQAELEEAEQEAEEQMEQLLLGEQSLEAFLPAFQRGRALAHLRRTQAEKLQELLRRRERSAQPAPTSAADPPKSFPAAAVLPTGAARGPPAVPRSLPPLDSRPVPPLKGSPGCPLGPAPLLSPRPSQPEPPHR

GFP-MVB12A (human) = GFP-MVB12A (human) (UniProt Q96EY5); test: co-IP
GFP-EAP30 (human) = target: T4, GFP-EAP30 (human) (UniProt Q96H20); test: co-IP
T4 sequence: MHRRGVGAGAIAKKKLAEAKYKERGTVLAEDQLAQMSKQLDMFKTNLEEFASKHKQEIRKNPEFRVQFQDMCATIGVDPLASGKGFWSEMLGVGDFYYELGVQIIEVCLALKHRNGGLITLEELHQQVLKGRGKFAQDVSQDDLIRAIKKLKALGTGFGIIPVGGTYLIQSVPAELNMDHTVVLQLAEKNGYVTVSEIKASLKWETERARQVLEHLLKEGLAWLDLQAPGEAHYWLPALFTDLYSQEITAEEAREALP

GFP-VPS37A (human) = GFP-VPS37A (human) (UniProt Q8NEZ2); test: co-IP
GFP-MVB12B (human) = target: T5, GFP-MVB12B (human) (UniProt Q9H7P6); test: co-IP
T5 sequence: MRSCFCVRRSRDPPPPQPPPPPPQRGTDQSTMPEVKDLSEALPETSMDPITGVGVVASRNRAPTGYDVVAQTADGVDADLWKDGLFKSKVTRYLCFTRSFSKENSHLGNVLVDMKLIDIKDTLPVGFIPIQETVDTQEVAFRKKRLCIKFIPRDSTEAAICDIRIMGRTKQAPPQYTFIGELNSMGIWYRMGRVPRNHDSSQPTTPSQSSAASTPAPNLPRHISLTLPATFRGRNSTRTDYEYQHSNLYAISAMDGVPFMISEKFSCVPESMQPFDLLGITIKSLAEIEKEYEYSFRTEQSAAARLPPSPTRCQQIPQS

GFP-UBAP1 (human) = target: T6, GFP-UBAP1 (human) (UniProt Q9NZ09); test: co-IP
T6 sequence: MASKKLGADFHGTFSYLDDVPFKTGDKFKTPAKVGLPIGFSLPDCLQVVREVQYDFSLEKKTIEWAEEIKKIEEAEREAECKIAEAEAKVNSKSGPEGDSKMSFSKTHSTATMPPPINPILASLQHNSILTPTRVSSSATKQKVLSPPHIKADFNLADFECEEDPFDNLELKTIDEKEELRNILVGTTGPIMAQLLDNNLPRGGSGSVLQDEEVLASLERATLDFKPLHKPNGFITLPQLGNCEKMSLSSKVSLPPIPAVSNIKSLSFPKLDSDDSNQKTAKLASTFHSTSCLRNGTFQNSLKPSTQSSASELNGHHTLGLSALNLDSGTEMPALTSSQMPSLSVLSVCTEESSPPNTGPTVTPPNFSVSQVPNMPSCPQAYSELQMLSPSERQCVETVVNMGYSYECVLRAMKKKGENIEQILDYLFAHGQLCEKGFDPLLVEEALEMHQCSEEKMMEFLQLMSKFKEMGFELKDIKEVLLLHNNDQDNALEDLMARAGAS

GFP-VPS28 (human) = GFP-VPS28 (human) (UniProt Q9UK41); test: co-IP
[2] = target: T7, endogenous Rab41 (human (endogenous in HeLa)) (UniProt Q5JT25); test: co-IP; endogenous proteins; HeLa cells incubated without LLOMe; lysates precipitated with anti-Rab41 antibody; immunoblot
T7 sequence: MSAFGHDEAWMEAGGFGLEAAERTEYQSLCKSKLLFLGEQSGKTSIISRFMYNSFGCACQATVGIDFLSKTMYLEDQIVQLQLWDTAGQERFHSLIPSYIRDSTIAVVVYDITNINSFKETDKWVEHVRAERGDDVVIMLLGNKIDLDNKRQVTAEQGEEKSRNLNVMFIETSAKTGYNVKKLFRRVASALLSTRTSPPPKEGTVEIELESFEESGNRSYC

[3] = target: T7, endogenous Rab41 (human (endogenous in HeLa)); test: co-IP; endogenous proteins; HeLa cells incubated with LLOMe for 1 h; lysates precipitated with anti-Rab41 antibody; immunoblot
GFP-Rab41 (human) = target: T8, GFP-Rab41 (human) (UniProt Q5JT25); test: proximity ligation
T8 sequence: T7 sequence

B1: recombinant Rab41 (protein, UniProt Q5JT25-2 1-221)
chain: T7 sequence
binding [1]: binds

B2: recombinant Rab41 T44N (GDP-locked) (protein, UniProt Q5JT25-2 1-221)
chain: T7 sequence with T44N
binding [1]: binds

B3: recombinant Rab41 Q89L (GTP-locked) (protein, UniProt Q5JT25-2 1-221)
chain: T7 sequence with Q89L
binding [1]: binds

B4: FLAG-Rab41 (protein, UniProt Q5JT25-2 1-221)
chain: T7 sequence
binding (GFP-EAP20 (human)): binds
binding (GFP-VPS37D (human)): binds
binding (GFP-MVB12A (human)): binds
binding (GFP-EAP30 (human)): binds
binding (GFP-VPS37A (human)): binds
binding (GFP-MVB12B (human)): binds
binding (GFP-UBAP1 (human)): binds
binding (GFP-VPS28 (human)): binds

B5: endogenous TOM1L2 (protein, UniProt Q6ZVM7 1-507)
chain: MEFLLGNPFSTPVGQCLEKATDGSLQSEDWTLNMEICDIINETEEGPKDAIRALKKRLNGNRNYREVMLALTVLETCVKNCGHRFHILVANRDFIDSVLVKIISPKNNPPTIVQDKVLALIQAWADAFRSSPDLTGVVHIYEELKRKGVEFPMADLDALSPIHTPQRSVPEVDPAATMPRSQSQQRTSAGSYSSPPPAPYSAPQAPALSVTGPITANSEQIARLRSELDVVRGNTKVMSEMLTEMVPGQEDSSDLELLQELNRTCRAMQQRIVELISRVSNEEVTEELLHVNDDLNNVFLRYERFERYRSGRSVQNASNGVLNEVTEDNLIDLGPGSPAVVSPMVGNTAPPSSLSSQLAGLDLGTESVSGTLSSLQQCNPRDGFDMFAQTRGNSLAEQRKTVTYEDPQAVGGLASALDNRKQSSEGIPVAQPSVMDDIEVWLRTDLKGDDLEEGVTSEEFDKFLEERAKAAEMVPDLPSPPMEAPAPASNPSGRKKPERSEDALFAL
binding [2]: no binding (condition: cells not treated with LLOMe)
binding [3]: binds

B6: FLAG-TOM1L2 (protein, UniProt Q6ZVM7 1-507)
chain: B5 chain
binding (GFP-Rab41 (human)): binds
